T1: TLT-1 18-188 relipidated in 20:80 PS:PC vesicles (human, UniProt Q86YW5 18-188)
T1 sequence: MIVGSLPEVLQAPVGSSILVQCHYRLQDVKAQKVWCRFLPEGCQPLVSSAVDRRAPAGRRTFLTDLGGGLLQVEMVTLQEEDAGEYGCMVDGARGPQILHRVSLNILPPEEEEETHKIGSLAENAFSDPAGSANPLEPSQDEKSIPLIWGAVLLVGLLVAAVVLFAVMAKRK

T2: TLT-1 receptor on the surface of activated human platelets (human, UniProt Q86YW5 16-311)
T2 sequence: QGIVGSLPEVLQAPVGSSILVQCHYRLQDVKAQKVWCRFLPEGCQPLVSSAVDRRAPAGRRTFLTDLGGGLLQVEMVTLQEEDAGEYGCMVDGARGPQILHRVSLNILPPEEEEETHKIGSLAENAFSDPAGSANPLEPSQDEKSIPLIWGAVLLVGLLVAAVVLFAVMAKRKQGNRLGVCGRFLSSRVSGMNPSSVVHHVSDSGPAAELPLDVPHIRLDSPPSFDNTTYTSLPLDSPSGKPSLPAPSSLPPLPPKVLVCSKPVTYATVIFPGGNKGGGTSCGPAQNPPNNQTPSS


Columns and labels:
[1] = biological target: T1, TLT-1 18-188 relipidated in 20:80 PS:PC …; assay: cell-based or functional assay
[2] = biological target: T2, TLT-1 receptor on the surface of …; assay: cell-based or functional assay

Binder	FVII-mediated FXa generation % Activity lipidated TLT-1 [1] [%]	FVIIa-mediated FXa generation % Activity lipidated TLT-1 [1] [%]	FVII-mediated FXa generation % Activity activated plts (n 1) [2] [%]	FVIIa-mediated FXa generation % Activity activated plts (n 1) [2] [%]	FVII-mediated FXa generation % Activity activated plts (n 2) [2] [%]	FVIIa-mediated FXa generation % Activity activated plts (n 2) [2] [%]
mAb 0012-(HC-L9-TF)2;LC2 (other) heavy chain-linker-TF: EVKLLESGGGLVQPGGSLKLSCAASGFDFSRYWMTWVRQAPGKGLEWIGEINPDSSTINYTPSLKDKFIISRDNAKNTLYLQMSEVRSEDTALYYCASGVFTSWGQGTLVTVSAASTKGPSVFPLAPCSRSTSESTAALGCLVKDYFPEPVTVSWNSGALTSGVHTFPAVLQSSGLYSLSSVVTVPSSSLGTKTYTCNVDHKPSNTKVDKRV[human IgG4 Fc with S228P (EU numbers) omitted]GGGGSGGGGSGGGGSGGGGSGGGGSGSGGGGSGGGGSGGGGSSGTTNTVAAYNLTWKSTNFKTILEWEPKPVNQVYTVQISTKSGDWKSKCFYTTDTECDLTDEIVKDVKQTYLARVFSYPAGNVESTGSAGEPLYENSPEFTPYLETNLGQPTIQSFEQVGTKVNVTVEDERTLVRRNNTFLSLRDVFGKDLIYTLYYWKSSSSGKKTAKTNTNEFLIDVDKGENYCFSVQAVIPSRTVNRKSTDSPVECMGQEKGEFRE light chain: DVVMTQTPLSLPVSLGDQASISCRSSQSLVHRNGNTYFHWCLQKPGQSPKLLIYKVSNRFSGVPDRFSGSGSGTDFTLKISRVEAEDLGVYFCSQSTHVPYTFGGGTKLEIKRTVAAPSVFIFPPSDEQLKSGTASVVCLLNNFYPREAKVQWKVDNALQSGNSQESVTEQDSKDSTYSLSSTLTLSKADYEKHKVYACEVTHQGLSSPVTKSFNRGEC	64	88	23	23		
mAb 0012-(LC-L0-TF)2;HC2 (other) light chain-TF, no linker: DVVMTQTPLSLPVSLGDQASISCRSSQSLVHRNGNTYFHWCLQKPGQSPKLLIYKVSNRFSGVPDRFSGSGSGTDFTLKISRVEAEDLGVYFCSQSTHVPYTFGGGTKLEIKRTVAAPSVFIFPPSDEQLKSGTASVVCLLNNFYPREAKVQWKVDNALQSGNSQESVTEQDSKDSTYSLSSTLTLSKADYEKHKVYACEVTHQGLSSPVTKSFNRGECSGTTNTVAAYNLTWKSTNFKTILEWEPKPVNQVYTVQISTKSGDWKSKCFYTTDTECDLTDEIVKDVKQTYLARVFSYPAGNVESTGSAGEPLYENSPEFTPYLETNLGQPTIQSFEQVGTKVNVTVEDERTLVRRNNTFLSLRDVFGKDLIYTLYYWKSSSSGKKTAKTNTNEFLIDVDKGENYCFSVQAVIPSRTVNRKSTDSPVECMGQEKGEFRE heavy chain: EVKLLESGGGLVQPGGSLKLSCAASGFDFSRYWMTWVRQAPGKGLEWIGEINPDSSTINYTPSLKDKFIISRDNAKNTLYLQMSEVRSEDTALYYCASGVFTSWGQGTLVTVSAASTKGPSVFPLAPCSRSTSESTAALGCLVKDYFPEPVTVSWNSGALTSGVHTFPAVLQSSGLYSLSSVVTVPSSSLGTKTYTCNVDHKPSNTKVDKRV[human IgG4 Fc with S228P (EU numbers) omitted]	20	52	6	15		
mAb 0012-(LC-L1-TF)2;HC2 (other) light chain-linker-TF: DVVMTQTPLSLPVSLGDQASISCRSSQSLVHRNGNTYFHWCLQKPGQSPKLLIYKVSNRFSGVPDRFSGSGSGTDFTLKISRVEAEDLGVYFCSQSTHVPYTFGGGTKLEIKRTVAAPSVFIFPPSDEQLKSGTASVVCLLNNFYPREAKVQWKVDNALQSGNSQESVTEQDSKDSTYSLSSTLTLSKADYEKHKVYACEVTHQGLSSPVTKSFNRGECGSSGTTNTVAAYNLTWKSTNFKTILEWEPKPVNQVYTVQISTKSGDWKSKCFYTTDTECDLTDEIVKDVKQTYLARVFSYPAGNVESTGSAGEPLYENSPEFTPYLETNLGQPTIQSFEQVGTKVNVTVEDERTLVRRNNTFLSLRDVFGKDLIYTLYYWKSSSSGKKTAKTNTNEFLIDVDKGENYCFSVQAVIPSRTVNRKSTDSPVECMGQEKGEFRE heavy chain: EVKLLESGGGLVQPGGSLKLSCAASGFDFSRYWMTWVRQAPGKGLEWIGEINPDSSTINYTPSLKDKFIISRDNAKNTLYLQMSEVRSEDTALYYCASGVFTSWGQGTLVTVSAASTKGPSVFPLAPCSRSTSESTAALGCLVKDYFPEPVTVSWNSGALTSGVHTFPAVLQSSGLYSLSSVVTVPSSSLGTKTYTCNVDHKPSNTKVDKRV[human IgG4 Fc with S228P (EU numbers) omitted]	32	66	13	18		
mAb 0012-(LC-L2-TF)2;HC2 (other) light chain-linker-TF: DVVMTQTPLSLPVSLGDQASISCRSSQSLVHRNGNTYFHWCLQKPGQSPKLLIYKVSNRFSGVPDRFSGSGSGTDFTLKISRVEAEDLGVYFCSQSTHVPYTFGGGTKLEIKRTVAAPSVFIFPPSDEQLKSGTASVVCLLNNFYPREAKVQWKVDNALQSGNSQESVTEQDSKDSTYSLSSTLTLSKADYEKHKVYACEVTHQGLSSPVTKSFNRGECGSGGGGSSGTTNTVAAYNLTWKSTNFKTILEWEPKPVNQVYTVQISTKSGDWKSKCFYTTDTECDLTDEIVKDVKQTYLARVFSYPAGNVESTGSAGEPLYENSPEFTPYLETNLGQPTIQSFEQVGTKVNVTVEDERTLVRRNNTFLSLRDVFGKDLIYTLYYWKSSSSGKKTAKTNTNEFLIDVDKGENYCFSVQAVIPSRTVNRKSTDSPVECMGQEKGEFRE heavy chain: EVKLLESGGGLVQPGGSLKLSCAASGFDFSRYWMTWVRQAPGKGLEWIGEINPDSSTINYTPSLKDKFIISRDNAKNTLYLQMSEVRSEDTALYYCASGVFTSWGQGTLVTVSAASTKGPSVFPLAPCSRSTSESTAALGCLVKDYFPEPVTVSWNSGALTSGVHTFPAVLQSSGLYSLSSVVTVPSSSLGTKTYTCNVDHKPSNTKVDKRV[human IgG4 Fc with S228P (EU numbers) omitted]	45	80	22	23		
mAb 0012-(LC-L3-TF)2;HC2 (other) light chain-linker-TF: DVVMTQTPLSLPVSLGDQASISCRSSQSLVHRNGNTYFHWCLQKPGQSPKLLIYKVSNRFSGVPDRFSGSGSGTDFTLKISRVEAEDLGVYFCSQSTHVPYTFGGGTKLEIKRTVAAPSVFIFPPSDEQLKSGTASVVCLLNNFYPREAKVQWKVDNALQSGNSQESVTEQDSKDSTYSLSSTLTLSKADYEKHKVYACEVTHQGLSSPVTKSFNRGECGSGGGGSGGGGSSGTTNTVAAYNLTWKSTNFKTILEWEPKPVNQVYTVQISTKSGDWKSKCFYTTDTECDLTDEIVKDVKQTYLARVFSYPAGNVESTGSAGEPLYENSPEFTPYLETNLGQPTIQSFEQVGTKVNVTVEDERTLVRRNNTFLSLRDVFGKDLIYTLYYWKSSSSGKKTAKTNTNEFLIDVDKGENYCFSVQAVIPSRTVNRKSTDSPVECMGQEKGEFRE heavy chain: EVKLLESGGGLVQPGGSLKLSCAASGFDFSRYWMTWVRQAPGKGLEWIGEINPDSSTINYTPSLKDKFIISRDNAKNTLYLQMSEVRSEDTALYYCASGVFTSWGQGTLVTVSAASTKGPSVFPLAPCSRSTSESTAALGCLVKDYFPEPVTVSWNSGALTSGVHTFPAVLQSSGLYSLSSVVTVPSSSLGTKTYTCNVDHKPSNTKVDKRV[human IgG4 Fc with S228P (EU numbers) omitted]	59	86			40	23
mAb 0012-(LC-L5-TF)2;HC2 (other) light chain-linker-TF: DVVMTQTPLSLPVSLGDQASISCRSSQSLVHRNGNTYFHWCLQKPGQSPKLLIYKVSNRFSGVPDRFSGSGSGTDFTLKISRVEAEDLGVYFCSQSTHVPYTFGGGTKLEIKRTVAAPSVFIFPPSDEQLKSGTASVVCLLNNFYPREAKVQWKVDNALQSGNSQESVTEQDSKDSTYSLSSTLTLSKADYEKHKVYACEVTHQGLSSPVTKSFNRGECGGGGSGSGGGGSGGGGSGGGGSSGTTNTVAAYNLTWKSTNFKTILEWEPKPVNQVYTVQISTKSGDWKSKCFYTTDTECDLTDEIVKDVKQTYLARVFSYPAGNVESTGSAGEPLYENSPEFTPYLETNLGQPTIQSFEQVGTKVNVTVEDERTLVRRNNTFLSLRDVFGKDLIYTLYYWKSSSSGKKTAKTNTNEFLIDVDKGENYCFSVQAVIPSRTVNRKSTDSPVECMGQEKGEFRE heavy chain: EVKLLESGGGLVQPGGSLKLSCAASGFDFSRYWMTWVRQAPGKGLEWIGEINPDSSTINYTPSLKDKFIISRDNAKNTLYLQMSEVRSEDTALYYCASGVFTSWGQGTLVTVSAASTKGPSVFPLAPCSRSTSESTAALGCLVKDYFPEPVTVSWNSGALTSGVHTFPAVLQSSGLYSLSSVVTVPSSSLGTKTYTCNVDHKPSNTKVDKRV[human IgG4 Fc with S228P (EU numbers) omitted]	68	87			46	24

Source: US20120178908A1 (Novo Nordisk, published 2012)
